# According to PubChem BioAssay AID485294 (National Center for Advancing Translational Sciences (NCATS), 2010):
# Where “and” joins values, the source holds several entries; their conditions need not be identical. Identical values can stand only once. In all, about 370,000 compounds went through this assay and about 150 (0.041%) were called active. Inconclusive results, whose numbers are uncertain, are shown with a selection of clear calls. Calls follow the shape of the dose curve; as a rule, active = well fitted inhibition curve with a large enough effect; inconclusive = small, poorly fitted or top-dose-only effect; inactive = flat fitted curve, though single readings scatter. A potency beside an inconclusive call is a rough fit, not a confirmed value.
# Target: Beta-lactamase (Escherichia coli (strain K12)) (UniProt P00811)
# Test: qHTS Inhibitors of AmpC Beta-Lactamase (assay with detergent); also: nearly all actives have a fitted effect of over 25% in size
# Conditions: AmpC hydrolysis of nitrocefin, absorbance 480 nm, 0.01% Triton; series mostly up to 114 µM
# In short: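 AmpC (5.3 nM in the dispensed reagent) in 20 mM phosphate pH 7.0 with 0.01% (detergent screen) or 0.0001% Triton X-100 was preincubated with compounds for 15 min at room temperature. Nitrocefin was then added from an 800 uM solution, and hydrolysis was followed at 480 nm.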
# Potency is read from the fitted curve at half-maximal effect; tags tell the direction and shape of the fitted curve.
# Sequence of UniProt P00811 (P00811 whole entry, looked up): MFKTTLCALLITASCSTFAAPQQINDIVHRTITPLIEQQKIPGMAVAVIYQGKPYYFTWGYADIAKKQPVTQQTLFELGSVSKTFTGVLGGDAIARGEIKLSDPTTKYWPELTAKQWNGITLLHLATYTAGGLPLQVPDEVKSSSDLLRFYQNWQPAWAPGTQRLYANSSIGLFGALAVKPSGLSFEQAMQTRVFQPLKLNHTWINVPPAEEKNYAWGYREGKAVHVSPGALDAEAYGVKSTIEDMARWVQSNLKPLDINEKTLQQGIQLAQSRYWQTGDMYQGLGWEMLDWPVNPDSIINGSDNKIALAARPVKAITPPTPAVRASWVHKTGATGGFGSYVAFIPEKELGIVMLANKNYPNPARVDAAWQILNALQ
row,SMILES,Potency
1,COc1ccc(-c2ccc(NS(=O)(=O)c3cc(C)c(C)cc3C)cc2)nn1,inactive
2,O=C(CNS(=O)(=O)c1ccccc1)N1CCN(C(=O)c2ccco2)CC1,"inconclusive: 3.16 µM [inhibitor, full curve]"
3,Cc1ccc(S(=O)(=O)NNC(=O)c2cnn(-c3ccc(Cl)cc3)c2C(F)(F)F)cc1,"inconclusive: 112 µM [inhibitor, partial curve, poor fit]"
4,CN(CC(=O)NC1CC1)S(=O)(=O)c1ccc(Br)cc1,inactive
5,Cc1ccc(S(=O)(=O)NCc2cn3ccsc3n2)c(C)c1,"inconclusive: 100 µM [inhibitor, single point]"
6,Cc1ccc(CN2CC(C(=O)N3CCN(S(=O)(=O)c4ccccc4)CC3)CC2=O)cc1 (stereo unspecified),"inconclusive: 100 µM [inhibitor, partial curve, poor fit]"
7,O=C(O)CCCCCCCCc1cn(Cc2ccc(C(=O)c3ccccc3)cc2)nn1,"inconclusive: 0.562 µM [inhibitor, full curve, poor fit]"
8,COc1cc(OC)cc(-c2nc3nc(C)c(CCC(=O)NCC(OC)OC)c(C)n3n2)c1,"inconclusive: 89.1 µM [inhibitor, single point]"
9,O=C(CCc1ccccc1)N/N=C\c1cc2c(cc1Br)OCO2,"inconclusive: 1.41 µM [inhibitor, full curve, poor fit]"
10,Cc1ccc(C(=O)NNC(=O)c2csc(N3CCOCC3)n2)o1,"inconclusive: 0.631 µM [inhibitor, full curve, poor fit]"
11,CC(C)OC(=O)CC1=NC(=O)CS1,"inconclusive: 10 µM [inhibitor, full curve, poor fit]"
12,CCCc1cc(C(=O)NCCc2ccccc2)no1,inactive
13,CCCOc1ccc(-c2cn3ccccc3n2)cc1[N+](=O)[O-],"inconclusive: 12.6 µM [inhibitor, full curve]"
14,Cc1cc(C(=O)CSc2nc3ccccc3c(=O)n2C)c(C)n1Cc1ccc2c(c1)OCO2,inactive
15,COCCN1C(=NCCCOC(C)C)N[C@@H](c2ccccc2)C(C(=O)OC)=C1C,"inconclusive: 5.62 µM [inhibitor, full curve, poor fit] and inconclusive: 25.1 µM [inhibitor, partial curve]"
16,O=C(CNC(=O)c1[nH]cnc1C(=O)N[C@@H](Cc1ccccc1)C(=O)OCc1ccccc1)OCc1ccccc1,"inconclusive: 100 µM [inhibitor, partial curve, poor fit]"
17,Cc1ccc(-n2nnc(-c3nccs3)n2)cc1,inactive
18,COc1ccc(NC(=O)NNS(=O)(=O)c2ccc(OC)c(OC)c2)c(OC)c1,"inconclusive: 1.26 µM [inhibitor, full curve]"
19,O=C(N/C(=C\c1ccccc1)C(=O)N1CCOCC1)c1ccc(Br)o1,"inconclusive: 0.708 µM [inhibitor, full curve, poor fit]"
20,COc1cccc(OC)c1OCCCCc1c(C)n[nH]c1C,"inconclusive: 100 µM [inhibitor, single point]"
21,O=C(/C(=C(/[O-])c1ccccc1)[n+]1ccccc1)c1ccc([N+](=O)[O-])cc1,"inconclusive: 25.1 µM [inhibitor, partial curve]"

row,SMILES,Potency
1,COc1ccc(-c2nnc(SCCOc3ccccc3C)o2)cc1OC,inactive
2,CN1CCN(C(=O)c2ccc3c(c2)OCCO3)CC1,"inconclusive: 2.24 µM [inhibitor, full curve]"
3,COc1ccc(/C=C/C(=O)c2ccc[nH]2)cc1OC,"inconclusive: 1.26 µM [inhibitor, full curve, poor fit]"
4,COc1ccc(OCC(=O)Nc2ccc(C)c(S(=O)(=O)N(C)C)c2)cc1,inactive
5,CC(C)CCNC(=S)NC1CCCC1,"inconclusive: 0.631 µM [inhibitor, full curve, poor fit]"
6,COc1cccc(NC(=O)N2CCN(C(=O)C(Cc3ccc(OC)c(OC)c3)NC(C)=O)CC2)c1 (stereo unspecified),"inconclusive: 50.1 µM [inhibitor, partial curve, poor fit]"
7,CCN(Cc1ccccc1)C(=O)C1CCN(S(=O)(=O)c2ccc3c(c2)OCCO3)CC1,"inconclusive: 79.4 µM [inhibitor, partial curve]"
8,CN(C)Cc1cc(CCNC(=O)c2ccc(Cl)cc2)ccc1O,"inconclusive: 0.282 µM [inhibitor, full curve, poor fit]"
9,CCOc1ccc(C2c3c(oc4ccc(C)cc4c3=O)C(=O)N2CCCN(C)C)cc1OC (stereo unspecified),inactive
10,CC(=O)N1CCCc2cc(S(=O)(=O)N3CCCC(C(=O)NC(C)C)C3)ccc21 (stereo unspecified),inactive
11,O=C(NCCN1CCOCC1)c1ccc2c(c1)N(Cc1cccc(F)c1)C(=O)c1ccccc1S2,"inconclusive: 1 µM [inhibitor, full curve, poor fit]"
12,O=C(CCC(=O)N(CC(=O)NC1CCCCC1)c1ccc(F)cc1)Nc1ccccn1,"inconclusive: 100 µM [inhibitor, single point]"
13,Cc1noc(C)c1COC(=O)c1cccnc1SCC(=O)Nc1ccc2c(c1)OCO2,"inconclusive: 89.1 µM [inhibitor, partial curve, poor fit]"
14,CCCN(CCC)C(=O)Cn1c(=O)n(CCCCC(=O)NCc2ccco2)c(=O)c2ccccc21,inactive
15,Cc1ccc(-n2nc3c(c2NC(=O)c2ccc4c(c2)OCO4)CSC3)cc1,"inconclusive: 100 µM [inhibitor, single point]"
16,CSc1ccc(-c2nc3cccc(C)n3c2Nc2ccc3c(c2)OCO3)cc1,inactive
17,CC(=O)c1ccc(S(=O)(=O)N(CC(=O)NC2CC2)Cc2ccc(F)cc2)cc1,"inconclusive: 3.16 µM [inhibitor, full curve, poor fit]"
18,COc1ccc(-c2nnc(NC(=O)c3ccc(S(=O)(=O)N4CCCc5ccccc54)cc3)o2)cc1,"inconclusive: 63.1 µM [inhibitor, partial curve]"
19,COc1cccc(N(C(=O)CNC(=O)c2ccco2)C(C(=O)NC2CCCCC2)c2cccnc2)c1 (stereo unspecified),inactive
20,Cc1ccc(OCCC(=O)Nc2c(C)n(C)n(-c3ccccc3)c2=O)cc1,"inconclusive: 100 µM [inhibitor, single point]"
